Measurements as given in PubChem BioAssay AID504333 (National Center for Advancing Translational Sciences (NCATS), 2011).
About 16,000 (4.4%) of roughly 360,000 compounds were called active. The shares of active, inactive and inconclusive entries below differ from those in the screen. The call rests on the fitted dose curve; in most records, active means well fitted inhibition curve with a large enough effect; inconclusive means small, poorly fitted or top-dose-only effect; inactive means no such curve, though single readings can be large or run the other way. Where the call is inconclusive, the potency comes from a doubtful curve fit.

target: Bromodomain adjacent to zinc finger domain protein 2B (Homo sapiens) (UniProt Q9UIF8); experiment: qHTS Assay for Inhibitors of BAZ2B; details: AlphaScreen BAZ2B-H3K14Ac peptide displacement; activity change, negative = inhibition: at 114 µM (top of the series); further: nearly all actives have a fitted effect of over 60% in size
Sequence of UniProt Q9UIF8 (Q9UIF8 whole entry, looked up, the tested form may be a part): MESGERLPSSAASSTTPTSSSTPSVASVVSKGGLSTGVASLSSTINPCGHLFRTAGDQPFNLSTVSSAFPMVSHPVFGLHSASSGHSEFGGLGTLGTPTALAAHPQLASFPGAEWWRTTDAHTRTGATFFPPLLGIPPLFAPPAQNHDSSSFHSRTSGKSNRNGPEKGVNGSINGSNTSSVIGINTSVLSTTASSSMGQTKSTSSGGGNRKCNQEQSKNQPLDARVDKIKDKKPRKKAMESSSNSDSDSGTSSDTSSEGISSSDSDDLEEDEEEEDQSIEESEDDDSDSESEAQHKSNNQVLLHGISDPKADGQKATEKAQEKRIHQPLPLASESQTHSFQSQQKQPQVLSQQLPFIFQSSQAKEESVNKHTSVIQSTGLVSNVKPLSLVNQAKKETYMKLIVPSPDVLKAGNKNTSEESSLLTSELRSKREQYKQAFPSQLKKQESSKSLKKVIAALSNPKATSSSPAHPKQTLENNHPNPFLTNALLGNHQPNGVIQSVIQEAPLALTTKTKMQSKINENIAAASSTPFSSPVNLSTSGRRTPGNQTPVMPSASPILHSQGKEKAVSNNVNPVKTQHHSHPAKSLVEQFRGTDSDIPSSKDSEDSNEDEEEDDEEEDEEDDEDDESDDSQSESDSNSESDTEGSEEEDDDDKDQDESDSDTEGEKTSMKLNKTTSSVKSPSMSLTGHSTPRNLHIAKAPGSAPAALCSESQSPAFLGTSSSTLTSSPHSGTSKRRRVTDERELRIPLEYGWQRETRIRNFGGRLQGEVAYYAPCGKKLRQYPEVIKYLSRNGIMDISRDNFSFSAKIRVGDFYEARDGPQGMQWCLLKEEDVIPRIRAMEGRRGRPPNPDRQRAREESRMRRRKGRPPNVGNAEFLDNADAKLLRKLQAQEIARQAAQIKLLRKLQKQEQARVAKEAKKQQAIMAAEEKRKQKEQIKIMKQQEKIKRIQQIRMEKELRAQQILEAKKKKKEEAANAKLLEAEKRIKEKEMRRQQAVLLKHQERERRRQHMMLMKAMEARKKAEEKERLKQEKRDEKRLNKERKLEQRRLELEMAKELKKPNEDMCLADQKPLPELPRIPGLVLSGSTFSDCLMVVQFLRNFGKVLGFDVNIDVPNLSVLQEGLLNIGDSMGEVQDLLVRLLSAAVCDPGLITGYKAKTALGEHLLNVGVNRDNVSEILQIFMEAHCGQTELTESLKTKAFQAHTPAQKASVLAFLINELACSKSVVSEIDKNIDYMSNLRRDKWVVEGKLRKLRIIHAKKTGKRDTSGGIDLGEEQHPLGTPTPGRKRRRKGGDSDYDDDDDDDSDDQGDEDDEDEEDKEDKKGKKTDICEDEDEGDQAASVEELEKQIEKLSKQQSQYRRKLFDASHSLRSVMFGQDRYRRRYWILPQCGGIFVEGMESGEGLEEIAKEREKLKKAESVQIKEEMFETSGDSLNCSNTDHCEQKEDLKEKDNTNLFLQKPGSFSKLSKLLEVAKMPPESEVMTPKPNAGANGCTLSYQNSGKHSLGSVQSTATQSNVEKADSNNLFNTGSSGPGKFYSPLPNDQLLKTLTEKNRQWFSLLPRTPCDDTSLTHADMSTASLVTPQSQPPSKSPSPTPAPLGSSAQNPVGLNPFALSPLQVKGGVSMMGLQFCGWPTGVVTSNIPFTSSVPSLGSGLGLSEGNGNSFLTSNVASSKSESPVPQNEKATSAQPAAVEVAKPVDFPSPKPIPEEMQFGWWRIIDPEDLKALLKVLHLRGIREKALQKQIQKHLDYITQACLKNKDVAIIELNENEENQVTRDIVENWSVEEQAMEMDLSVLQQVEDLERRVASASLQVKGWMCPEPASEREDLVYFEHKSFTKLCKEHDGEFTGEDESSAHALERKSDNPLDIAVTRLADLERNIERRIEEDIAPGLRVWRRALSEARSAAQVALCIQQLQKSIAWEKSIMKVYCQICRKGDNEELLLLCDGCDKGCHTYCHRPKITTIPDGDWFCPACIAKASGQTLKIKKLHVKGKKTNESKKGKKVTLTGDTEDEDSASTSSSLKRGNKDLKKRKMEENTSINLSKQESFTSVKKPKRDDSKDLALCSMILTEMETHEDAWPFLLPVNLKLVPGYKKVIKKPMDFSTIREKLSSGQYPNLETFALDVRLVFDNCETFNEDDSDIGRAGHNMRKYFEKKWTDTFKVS
Method in brief: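 BAZ2B 50 nM plus b-H3(5-23)K14Ac 50 nM, PBS pH 7.4/0.01% Tween-20, 30 min RT; compound added (max 110 uM), 30 min RT; streptavidin donor/Ni-chelate acceptor beads 10 ug/mL final, 20 min dark; AlphaScreen read.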
On the % scale 0 is the no-effect control and ±100 the full control effect; potency means the concentration at half of the fitted maximal effect; tags describe the fitted curve by direction and shape.

Structure (SMILES) | Potency | activity change, negative = inhibition
Cc1ccc(CN(Cc2cc3cccc(C)c3[nH]c2=O)C(=S)NCCCN(C)C)cc1 | inconclusive: 79.4 µM [inhibitor, single point] | 
COc1ccc(OC)c(-c2oc3ccccc3c(=O)c2O)c1 |  | inactive: -0.566%
Cc1nn(C)cc1CN(C)C(=O)c1cc2nc(-c3ccco3)cc(C(F)(F)F)n2n1 |  | inactive: -30.9%
C/C(=N\Nc1ccc(C(=O)O)cc1)c1ccc(Br)cc1 | active: 50.1 µM | 
O=C(CSC(=S)N1CCCCC1)N1N=CCC1c1ccccc1 (stereo unspecified) | inconclusive: 1.41 µM [inhibitor, full curve, poor fit] | 
Oc1[nH]c2ccc(Br)cc2c1N=NC(=S)Nc1ccc(F)cc1 | inconclusive: 39.8 µM [inhibitor, partial curve] | 
COc1cc(/C=C2\SC(=S)N(NS(=O)(=O)c3ccccc3)C2=O)ccc1O | inconclusive: 35.5 µM [inhibitor, partial curve] | 
N#CC1=C(N)Oc2cc(N)ccc2C1c1ccc(Cl)cc1 (stereo unspecified) | inconclusive: 79.4 µM [inhibitor, single point] | 
O=C(N[C@@H](Cc1ccccc1)C(=O)OCc1ccccc1)c1nc[nH]c1C(=O)N1CCN(c2ccccc2)CC1 | inconclusive: 20 µM [inhibitor, full curve] | 
Cc1cc(C)c2nc3s/c(=C/c4ccc5c(c4)n(C)c(=O)n5C)c(=O)n3c2c1 | inconclusive: 2.82 µM [inhibitor, single point] | 
Cc1nc(NC(=O)/C=C/c2ccccc2)sc1C(=O)N1CCCCC1 | inconclusive: 89.1 µM [inhibitor, single point] | 
CCC(=O)N1c2ccccc2CC1C(=O)NCCCN1CCN(c2cc(C)ccc2C)CC1 (stereo unspecified) |  | inactive: -21.6%
CN(C)c1ccc(/C=N\Nc2ccccn2)cc1 | active: 25.1 µM | 
COc1ccc(-c2cc3nc(N)cc(=O)n3[nH]2)cc1 |  | inactive: 7.69%
O=C1CCCC(O)=C1N=Nc1ccc(Cl)c(Cl)c1 | inconclusive: 79.4 µM [inhibitor, single point] | 
COc1ccc(CN2CCNC(=O)C2CC(=O)NCCCC2CCCC2)c(C)c1C (stereo unspecified) | inconclusive: 79.4 µM [inhibitor, single point] | 
S=C(NCc1ccc2[nH]c3c(c2c1)CCCC3)Nc1ccccc1Cl | active: 35.5 µM | 
Cc1ccc(-n2ncc3c(N(C)Cc4ccccc4)ncnc32)cc1 |  | inactive: 47.6%
CCOC(=O)CSc1nc2sc3c(c2c(=O)n1CC)CC(C)(C)OC3 |  | inactive: 6.02%
Cc1cc(NS(=O)(=O)c2ccc(NC(=O)c3ccccc3F)cc2)nc(C)n1 |  | inactive: -7.91%
CC(C)CN1CCC(C(=O)NCC2CCCO2)CC1 (stereo unspecified) | active: 56.2 µM | 
O=C1C(CCCNC(=S)NCc2ccccc2)NC(=S)N1Cc1ccccc1 (stereo unspecified) | inconclusive: 39.8 µM [inhibitor, partial curve] | 
COc1ccc2c(=O)c3c(=O)n(Cc4ccco4)c(-c4ccc(C)cc4)nc3oc2c1 | inconclusive: 50.1 µM [inhibitor, partial curve] | 

Structure (SMILES) | Potency | activity change, negative = inhibition
COc1ccc(S(=O)(=O)/N=C2/NC(=O)/C(=C\c3cc(OC)c(OC)cc3[N+](=O)[O-])S2)cc1 | inconclusive: 89.1 µM [inhibitor, single point] | 
CCN(CC)CCOC(=O)C1(C2CCCCC2)CCCCC1 | inconclusive: 79.4 µM [inhibitor, single point] | 
CC(NCC1COc2ccccc2O1)C1COc2ccccc2O1 (stereo unspecified) | inconclusive: 79.4 µM [inhibitor, single point] | 
COc1cc(OC)c(NC(=O)C2CC(=O)N(c3ccc4c(c3)OCCO4)C2)cc1Cl (stereo unspecified) |  | inactive: 3.76%
COc1ccccc1N1CCN(CC(=O)c2ccc(F)cc2)CC1 | active: 56.2 µM | 
C=C(C)C1CC=C(C)/C(=N/NC(=O)CNc2ccc(OCC)cc2)C1 (stereo unspecified) | inconclusive: 44.7 µM [inhibitor, partial curve] | 
COc1cc2c(C#N)c(N3CCN(c4ccccc4OC)CC3)nc(N)c2c(N)n1 | inconclusive: 79.4 µM [inhibitor, single point] | 
Cc1nn(C(=O)c2ccccc2)c(C)c1Sc1ccc(Cl)cc1 |  | inactive: 209%
Cc1cc(C)n(C(=O)/C(C#N)=N\Nc2ccccc2[N+](=O)[O-])n1 |  | inactive: -33.7%
Cn1cnc(S(=O)(=O)N2CCC(C(=O)NCc3ccccc3)CC2)c1 | inconclusive: 8.91 µM [inhibitor, partial curve, poor fit] | 
CCOC(=O)Nc1cc(C)c(Cl)cc1OC |  | inactive: 27.5%
COc1ccc(Nc2nc(-c3cccc([N+](=O)[O-])c3)nc3ccccc23)c(OC)c1 | inconclusive: 11.2 µM [inhibitor, partial curve] | 
COc1cc(/C=C/C(=O)Nc2ccc(C)cc2)cc(OC)c1OC |  | inactive: -33.1%
CCn1c(=O)n(CC)c2cc(N3CCCC3)c(NC(=O)c3cccc(C)c3)cc21 | active: 50.1 µM | 
COc1ccc(S(=O)(=O)NCCc2csc3nc(-c4ccc(Cl)cc4)nn23)cc1C | inconclusive: 89.1 µM [inhibitor, single point] | 
c1ccc(CN2CCN(CCOCCOc3ccc4c(c3)CCC4)CC2)cc1 | inconclusive: 70.8 µM [inhibitor, single point] | 
Cc1ccc(-n2nc3c(=O)n(CCCC(=O)N4CCC(C(N)=O)CC4)nc(C)c3c2C)cc1 |  | inactive: -4.57%
CC(C)c1c(O)nc(SCc2ccc(F)cc2)[nH]c1=O |  | inactive: -29.3%
Oc1c(Cl)cc(Cl)cc1/C=C/c1ccc2cccc(O)c2n1 | inconclusive: 89.1 µM [inhibitor, partial curve] | 
CCOc1cc(-c2nnc(SCC(=O)NCc3ccccc3)nc2-c2ccc(OC)c(OCC)c2)ccc1OC | active: 50.1 µM | 
COc1ccc2cc(CN(CCc3ccccc3)Cc3nnnn3Cc3ccco3)c(=O)[nH]c2c1 | inconclusive: 89.1 µM [inhibitor, single point] | 
COc1ccccc1N1CCN(S(=O)(=O)c2ccc3[nH]c4c(c3c2)CCCC4)CC1 | inconclusive: 35.5 µM [inhibitor, partial curve] | 
O=C(CN1C(=O)c2ccccc2C1=O)NCCc1c[nH]c2ccc(Cl)cc12 | inconclusive: 89.1 µM [inhibitor, single point] | 
